One experiment deals with HSkMC. Kind of experiment: cytotoxicity call (relative viability < 0.9). As to conditions: 10 µM.
The test system of the next experiment is HepG2. Kind of experiment: cytotoxicity call (relative viability < 0.9). As to conditions: 10 µM.
In a further experiment the test system is S. aureus RN4220. Kind of experiment: growth inhibition call (relative growth <= 0.2). The conditions noted are these: 50 µM.

The other results are listed elsewhere or left out.

For the compound `O=C(C[C@@H]1CC=CC[C@H](NC(=O)OCC2c3ccccc3-c3ccccc32)C(=O)OCCNC1=O)NCCO`, the cytotoxicity call in the experiment on HSkMC and with HepG2 was “inactive” in each case. Moreover, the growth inhibition call in the experiment with S. aureus RN4220 is “inactive”.
For the compound `C/C=C\C=C/[C@@H]1O[C@](O)([C@@H](CC)C(=O)NC/C=C\C=C(\C)[C@@H](OC)[C@@H](C)[C@H]2O[C@@H](\C=C/C=C\C=C(\C)C(=O)c3c(O)cc[nH]c3=O)[C@@H](O)[C@@H]2O)[C@@H](O)[C@H](O)C1(C)C`, the cytotoxicity call with HSkMC and with HepG2 was “inactive” each time. Moreover, the growth inhibition call in the experiment with S. aureus RN4220 is “inactive”.
`C[C@H]1CN([C@@H](C)CO)C(=O)Cc2cc(NS(=O)(=O)c3cccs3)ccc2O[C@@H]1CN(C)S(=O)(=O)c1ccc(F)cc1`: the cytotoxicity call in the experiment with HSkMC and with HepG2 was “inactive” each time. The growth inhibition call with S. aureus RN4220 is “inactive”.
With `C[C@@H]1CN([C@@H](C)CO)C(=O)Cc2cc(NC(=O)CCCCCC(=O)Nc3ccccc3N)ccc2O[C@@H]1CN(C)C(=O)Nc1ccc(C(F)(F)F)cc1`, the cytotoxicity call in the experiment with HSkMC and in the experiment on HepG2 was “inactive” in each case. Moreover, the growth inhibition call with S. aureus RN4220 was “inactive”.
As to `CCC(=O)N(C)C[C@H]1Oc2ncc(C#C[C@@H](C)O)cc2C(=O)N([C@@H](C)CO)C[C@@H]1C`, the cytotoxicity call in the experiment with HSkMC and in the experiment on HepG2 was “inactive” in each case. Besides, the growth inhibition call in the experiment with S. aureus RN4220 is “inactive”.
Take `C[C@@H]1CCCCO[C@@H](CN(C)Cc2ccncc2)[C@@H](C)CN([C@H](C)CO)C(=O)c2cc(NC(=O)NC3CCCCC3)ccc2O1`: the cytotoxicity call in the experiment with HSkMC and with HepG2 was “inactive” each time. The growth inhibition call in the experiment with S. aureus RN4220 is “inactive”.
Consider `Cc1ccc(S(=O)(=O)N(C)C[C@H]2OCCCC[C@H](C)Oc3ccc(NC(=O)Nc4ccc(C(F)(F)F)cc4)cc3C(=O)N([C@@H](C)CO)C[C@H]2C)cc1`, for which the cytotoxicity call in the experiment with HSkMC and in the experiment on HepG2 was “inactive” throughout. In addition, the growth inhibition call in the experiment on S. aureus RN4220 is “inactive”.
Regarding `C[C@H](CO)N1C[C@H](C)[C@H](CN(C)Cc2ccc(C(=O)Nc3ccccc3N)cc2)Oc2ccc(NC(=O)Cn3cnnn3)cc2CC1=O`, the cytotoxicity call with HSkMC and in the experiment on HepG2 was “inactive” each time. Besides, the growth inhibition call in the experiment on S. aureus RN4220 was “inactive”.
In the case of `C[C@@H]1CN([C@H](C)CO)C(=O)Cc2cc(NC(=O)Nc3cccc4ccccc34)ccc2O[C@H]1CN(C)C(=O)Nc1ccccc1`, the cytotoxicity call in the experiment on HSkMC and in the experiment on HepG2 was “inactive” in each case. The growth inhibition call in the experiment with S. aureus RN4220 is “inactive”.
For the compound `COC(=O)Cc1c(C)[nH]c(=S)[nH]c1=O`, the cytotoxicity call in the experiment on HSkMC and with HepG2 was “inactive” each time. Further, the growth inhibition call in the experiment on S. aureus RN4220 is “inactive”.
On to `COCC(=O)N(C)C[C@@H]1Oc2cc(C#CCN(C)C)ccc2S(=O)(=O)N([C@H](C)CO)C[C@@H]1C`, for which the cytotoxicity call in the experiment on HSkMC and with HepG2 was “inactive” throughout. Besides, the growth inhibition call with S. aureus RN4220 was “inactive”.
As for `NCc1ccccc1Oc1ccccc1`, the cytotoxicity call in the experiment on HSkMC and with HepG2 was “inactive” in each case. Also, the growth inhibition call in the experiment on S. aureus RN4220 was “inactive”.
On to `C[C@H](CO)N1C[C@H](C)[C@@H](CN(C)Cc2ccc3c(c2)OCO3)Oc2ccc(NS(=O)(=O)c3cn(C)cn3)cc2CC1=O`, for which the cytotoxicity call in the experiment on HSkMC and with HepG2 was “inactive” throughout. Further, the growth inhibition call in the experiment with S. aureus RN4220 is “inactive”.
As to `CCc1cccc(NC(=O)O[C@H]2[C@H](OC(=O)Nc3ccccc3-c3ccccc3)[C@H](OC(=O)Nc3ccccc3-c3ccccc3)[C@@H](OC)O[C@@H]2CO)c1`, the cytotoxicity call with HSkMC and with HepG2 was “inactive” in each case. Also, in the experiment with S. aureus RN4220, the growth inhibition call was “inactive”.
As to `O=S(=O)(c1c[nH]c2ncccc12)N1CC(S(=O)(=O)N2CCOCC2)C1`, the cytotoxicity call in the experiment on HSkMC and in the experiment on HepG2 was “inactive” each time. The growth inhibition call in the experiment with S. aureus RN4220 was “inactive”.
Turning to `CN(C)C(=O)C[C@@H]1CC[C@@H]2[C@H](COC[C@H](O)CN2S(=O)(=O)c2ccc(Oc3ccccc3)cc2)O1`, the cytotoxicity call with HSkMC and in the experiment with HepG2 was “inactive” in each case. In the experiment with S. aureus RN4220, the growth inhibition call is “inactive”.
On to `COc1ccc(NC(=O)N2C[C@H](O)COC[C@H]3O[C@@H](CC(=O)NCc4ccccc4OC)CC[C@@H]32)cc1`, for which the cytotoxicity call in the experiment on HSkMC and in the experiment on HepG2 was “inactive” throughout. Moreover, in the experiment on S. aureus RN4220, the growth inhibition call was “inactive”.
`CC(C)NC(=O)Nc1cccc2c1O[C@H](CN(C)S(=O)(=O)c1ccc(Cl)cc1)[C@@H](C)CN([C@H](C)CO)C2=O`: the cytotoxicity call in the experiment with HSkMC and in the experiment on HepG2 was “inactive” in each case. The growth inhibition call in the experiment on S. aureus RN4220 was “inactive”.
`CC(C)NC(=O)N(C)C[C@@H]1OCCCC[C@H](C)Oc2ccc(NC(=O)C3CCCCC3)cc2C(=O)N([C@@H](C)CO)C[C@@H]1C`: the cytotoxicity call in the experiment on HSkMC and in the experiment on HepG2 was “inactive” throughout. Further, the growth inhibition call in the experiment with S. aureus RN4220 was “inactive”.
Regarding `C[C@@H]1CN([C@@H](C)CO)C(=O)Cc2cc(NC(=O)Nc3ccc(F)cc3)ccc2O[C@@H]1CN(C)C(=O)Nc1cccc2ccccc12`, the cytotoxicity call in the experiment on HSkMC and in the experiment with HepG2 was “inactive” each time. Also, in the experiment with S. aureus RN4220, the growth inhibition call was “inactive”.
Turning to `O=C(C[C@H]1CC[C@H]2[C@@H](COC[C@@H](O)CN2C(=O)Nc2cc(Cl)cc(Cl)c2)O1)N1CCOCC1`, the cytotoxicity call in the experiment with HSkMC and in the experiment on HepG2 was “inactive” each time. For the same compound, the growth inhibition call in the experiment with S. aureus RN4220 is “inactive”.
In the case of `C[C@H](CO)N1C[C@H](C)[C@@H](CN(C)CC2CCCCC2)OCCCC[C@H](C)Oc2ccc(NC(=O)NC3CCCCC3)cc2C1=O`, the cytotoxicity call in the experiment on HSkMC and in the experiment on HepG2 was “inactive” throughout. The growth inhibition call with S. aureus RN4220 was “inactive”.
For `CNC[C@H]1Oc2ccc(NS(=O)(=O)c3cn(C)cn3)cc2C(=O)N([C@H](C)CO)C[C@@H]1C`, the cytotoxicity call in the experiment on HSkMC and in the experiment with HepG2 was “inactive” each time. The growth inhibition call with S. aureus RN4220 was “inactive”.
In the case of `C[C@@H]1CN([C@@H](C)CO)C(=O)Cc2cc(NC(=O)Nc3ccccc3)ccc2O[C@@H]1CN(C)Cc1ccc(Cl)c(Cl)c1`, the cytotoxicity call in the experiment with HSkMC and with HepG2 was “active” in each case. Further, the growth inhibition call in the experiment with S. aureus RN4220 is “inactive”.
For `C[C@H]1CN([C@@H](C)CO)C(=O)c2cccc(NS(=O)(=O)c3ccc(Cl)cc3)c2O[C@H]1CN(C)Cc1ccc(C(F)(F)F)cc1`, the cytotoxicity call in the experiment on HSkMC (human skeletal muscle cells) and in the experiment on HepG2 was “inactive” throughout. Also, the growth inhibition call in the experiment with S. aureus RN4220 was “inactive”.
`CC(C)NC(=O)N(C)C[C@@H]1Oc2ccc(NS(=O)(=O)c3ccc(F)cc3)cc2CC(=O)N([C@@H](C)CO)C[C@H]1C`: the cytotoxicity call with HSkMC and in the experiment on HepG2 was “inactive” throughout. Moreover, the growth inhibition call in the experiment with S. aureus RN4220 is “inactive”.
As for `C[C@H]1CCCCO[C@@H](CN(C)S(=O)(=O)c2ccc(F)cc2)[C@@H](C)CN([C@@H](C)CO)C(=O)c2cc(NS(=O)(=O)c3ccc(Cl)cc3)ccc2O1`, the cytotoxicity call with HSkMC and in the experiment on HepG2 was “inactive” each time. Moreover, the growth inhibition call in the experiment with S. aureus RN4220 was “inactive”.

These data come from the antibiotic and cytotoxicity screens of Wong et al. (2023).
